# Source: PubChem BioAssay AID686979 (National Center for Advancing Translational Sciences (NCATS), 2013)
# “And” between values parts separate entries of the source, which are not always exact repeats. Identical values can stand only once. About 50,000 (12%) of roughly 420,000 compounds were called active. Inconclusive results, whose numbers are uncertain, are shown with a selection of clear calls. The call rests on the fitted dose curve; in most records, active means well fitted inhibition curve with a large enough effect; inconclusive means small, poorly fitted or top-dose-only effect; inactive means flat fitted curve, though single readings scatter. A potency beside an inconclusive call is a rough fit, not a confirmed value.
# Test: qHTS for Inhibitors of human tyrosyl-DNA phosphodiesterase 1 (TDP1): qHTS in cells in presence of CPT; further: nearly all actives have a fitted effect of over 55% in size
# Conditions: chicken DT40 Tdp1-/-;hTDP1 cells + 20 nM CPT, ATP luminescence, 48 h; activity change, negative = growth inhibition: at 46.2 µM (top of the series)
# Procedure, shortened: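 Cell growth measured by CellTiter-Glo luminescence after a minimum 48 h, 37 C compound exposure with 20 nM CPT in Tdp1-knockout DT40 cells stably expressing hTDP1, seeded 400/well; qHTS titration format.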
# On the % scale 0 is the no-effect control and ±100 the full control effect; potency means the concentration at half of the fitted maximal effect; tags describe the fitted curve by direction and shape.
Compound,Potency,"activity change, negative = growth inhibition"
CN1C(=O)C(CC(=O)Nc2ccc(Cl)cc2)N(Cc2ccco2)C1=S (configuration not stated),"inconclusive: 29.1 µM [inhibitor, single point]",–
Cc1ccc(-c2nc3n(n2)C(=O)CC(c2ccc(C)cc2)S3)cc1 (configuration not stated),inactive,–
CNc1ccc(/C=C/C(=O)c2cccc3ccccc23)cc1[N+](=O)[O-],active: 16.4 µM,–
O=C(c1ccc(CNS(=O)(=O)c2cccc(Cl)c2)cc1)N1CCCCC1,active: 16.4 µM,–
Cc1ccc(-n2[nH]c(C)c(C=Nc3cc(C)ccn3)c2=O)cc1,"inconclusive: 18.4 µM [inhibitor, partial curve]",–
O=C(O)COc1ccc(/C=C/C(=O)c2ccc(C3CCCCC3)cc2)cc1,"inconclusive: 29.1 µM [inhibitor, single point]",–
CCOC(=O)c1c2ccc(OCC(=O)N/N=C/c3ccc(C)cc3)cc2n2ccccc12,"inconclusive: 29.1 µM [inhibitor, single point]",–
O=C(Nc1ccc(C(=O)N2CCOCC2)cc1)Nc1cccc2ccccc12,inactive,–
Cc1cc(C)cc(NS(=O)(=O)CCCS(=O)(=O)Nc2cc(C)cc(C)c2)c1,"inconclusive: 20.6 µM [inhibitor, single point]",–
O=C(/C=C/Nc1ccc(Br)cn1)c1cccc(OC(F)F)c1,–,inconclusive: -31.4% [inhibitor]
CSCCC(C(=O)NCc1ccccc1)n1c(C2CCN(C(C)=O)CC2)nc2ccccc21 (configuration not stated),"inconclusive: 25.9 µM [inhibitor, single point]",–
O=C1CCN(Cc2ccccc2)CCN1[C@H](COc1ccccc1)Cc1ccccc1,active: 20.6 µM,–
CCOc1ccc(CN2C(=O)c3ccccc3Sc3ccc(C(=O)NCCCN4CCOCC4)cc32)cc1,"inconclusive: 29.1 µM [inhibitor, single point] and inconclusive: 18.4 µM [inhibitor, partial curve]",–
C/C(=N\NC(=O)c1ccc([N+](=O)[O-])c(C)c1)c1ccccc1Cl,"inconclusive: 29.1 µM [inhibitor, single point]",–
CNCc1cn2cc(Cl)ccc2n1,"inconclusive: 25.9 µM [inhibitor, single point]",–
Oc1c(Br)cc(Br)cc1C=Nc1cccnc1,"inconclusive: 29.1 µM [inhibitor, single point]",–
Nc1nc(NCCCN2CCOCC2)nc(Nc2ccc(F)cc2)c1[N+](=O)[O-],"inconclusive: 29.1 µM [inhibitor, single point]",–
COc1ccc2cc(C#N)c(N3CCOCC3)nc2c1,"inconclusive: 16.4 µM [inhibitor, single point]",–
Cn1cccc1C(=O)OCC(=O)NC1CCS(=O)(=O)C1 (configuration not stated),inactive,–
COc1cc(OC)cc(C(=O)NCC(=O)OCc2ccc(Cl)c(Cl)c2)c1,"inconclusive: 29.1 µM [inhibitor, single point]",–
Cc1ccc(NC(=O)CCS(=O)(=O)c2ccc3nc(C)sc3c2)c(C)c1,inactive,–
Cc1cccnc1NC(=O)c1ccc(NS(=O)(=O)/C=C/c2ccccc2)cc1,inactive,–
COc1ccc(NC(C)=O)cc1S(=O)(=O)Nc1ccc2c(c1)OCCO2,inactive,–
O=S1(=O)CCN(CCCCc2ccccc2)CC1,inactive,–

Compound,Potency,"activity change, negative = growth inhibition"
Nc1ncnc2c1ncn2[C@@H]1O[C@H](COP(=O)(O)O)[C@@H](O)[C@H]1O,"inactive and inconclusive: 32.6 µM [inhibitor, single point]",–
COc1cc2c(cc1OC)CN(C(=O)c1cc(COc3ccccc3SC)on1)CC2,"inconclusive: 29.1 µM [inhibitor, single point]",–
Cc1ccc(-n2nnnc2SCC(=O)N2CCc3ccccc3C2)cc1,inactive,–
O=C(NCc1ccccc1)C1CCCN(S(=O)(=O)c2cccc3nonc23)C1 (configuration not stated),"inconclusive: 20.6 µM [inhibitor, single point]",–
COC/C=C/C1=CC2=CC(=O)C(C)(OC(=O)c3cnc4ccccc4n3)C(=O)C2=CN1CC1CC1 (configuration not stated),inactive,–
CCC(CO)Oc1cc(NC(=O)Cc2ccccc2)c2ncn(C(C)C)c2c1 (configuration not stated),inactive,–
COc1cccc(/C=N/NC(=S)NCc2ccco2)c1OC,"inconclusive: 29.1 µM [inhibitor, single point]",–
Cc1ccc(OCC(=O)N2CCC(Cc3ccccc3)CC2)c([N+](=O)[O-])n1,"inconclusive: 18.4 µM [inhibitor, single point]",–
O=S(=O)(NCC1CCN(c2ccc(S(=O)(=O)N3CCOCC3)cc2)CC1)c1ccc(F)cc1,active: 23.1 µM,–
Cc1ccc(NC(=O)CNCc2ccccc2Cl)cc1S(=O)(=O)N(C)C,inactive,–
CC(C)c1nc2oc3c(N4CCN(C)CC4)ncnc3c2c2c1CCC2,"inconclusive: 25.9 µM [inhibitor, single point]",–
COc1ccccc1C(=O)Nc1ccnn1C1CCN(CCCc2ccccc2)CC1,"inconclusive: 16.4 µM [inhibitor, partial curve]",–
Nc1ncnc2c1nc(Br)n2C1OC(CO)C(O)C1O (configuration not stated),"inconclusive: 0.082 µM [inhibitor, full curve, poor fit]",–
CCN(CC)c1ccc(/C=N/NC(=O)c2cnccn2)c(O)c1,active: 5.17 µM,–
CN(C)c1ncc(C(=O)NCc2ccccc2Cl)cn1,inactive,–
O=C(C1CC1)N1CCc2cc(S(=O)(=O)NCCC3=CCCCC3)ccc21,"inconclusive: 18.4 µM [inhibitor, single point]",–
Cc1ccc(OCC(=O)N(Cc2nc(-c3ccccc3)no2)C(C)C)cc1C,"inconclusive: 29.1 µM [inhibitor, single point]",–
CC(C)Cn1c([N+](=O)[O-])nc2c1c(=O)[nH]c(=O)n2C,active: 3.26 µM,–
O=C(Nc1ccc2c(c1)OCCO2)C(c1ccccc1F)n1c(=O)c(-c2ccco2)nc2ccccc21 (configuration not stated),active: 8.2 µM,–
CCCOc1ccc(C(=O)N2CCN(c3ccc(N)cc3Cl)CC2)cc1,active: 23.1 µM,–
CCCCNC(=O)Cn1nc(-c2ccc(C)cc2)ccc1=O,inactive,–
CCN(Cc1ccccc1)S(=O)(=O)c1ccc(C(=O)N(CCCN(C)C)c2nc3cc4c(cc3s2)OCO4)cc1,"inconclusive: 16.4 µM [inhibitor, single point]",–
COC(=O)c1ccc([C@H]2Nc3ccc(S(=O)(=O)Nc4ccc(F)cc4)cc3[C@H]3C=CC[C@H]32)cc1,active: 3.66 µM,–
CCOC(=O)c1ccc(N2CCN(c3ccc(F)cc3)CC2)c(NC(=O)Nc2ccc(CC)cc2)c1,inactive,–

Compound,Potency,"activity change, negative = growth inhibition"
O=C(c1cc(C(F)(F)F)cc(C(F)(F)F)c1)N1CCC2(CC1)CN(c1ccncc1)C2,"inconclusive: 29.1 µM [inhibitor, single point]",–
CCOc1ccc(C(=O)Nc2ccc(NC(=O)c3ccccc3)cc2)cc1Br,inactive,–
Cc1ccc(-c2n[nH]c3c2CCC3)cc1,inactive,–
Cc1ccc2[nH]c(=O)c3cc(C(=O)NCc4cccc(Cl)c4)sc3c2c1,"inconclusive: 20.6 µM [inhibitor, single point]",–
Cc1cccc(-c2ncc(CN3CCC(CO)(CCCc4ccccc4)CC3)cn2)c1,active: 23.1 µM,–
CCOC(=O)CNC(=O)Nc1cc(C(=O)NCc2ccc(C(C)C)cc2)ccc1N1CCCC1,"inconclusive: 29.1 µM [inhibitor, single point]",–
N#Cc1c(C(F)(F)F)cc(-c2ccco2)nc1SCc1ccccn1,"inconclusive: 25.9 µM [inhibitor, single point]",–
CCN(CC(=O)Nc1c(F)cccc1F)C(=O)c1cccc(-n2cccc2)c1,"inconclusive: 16.4 µM [inhibitor, single point]",–
COc1cccc(CNC(=O)CCC2CCCN(C(=O)c3ccc(F)c(Cl)c3)C2)c1 (configuration not stated),"inconclusive: 23.1 µM [inhibitor, single point]",–
CN(CC(=O)Nc1ccc(Cl)c(C(F)(F)F)c1)C(=O)c1cccs1,"inconclusive: 18.4 µM [inhibitor, single point]",–
COCc1cc(C)n(CC(=O)NCc2ccccc2)c(=O)c1C#N,"inconclusive: 29.1 µM [inhibitor, single point]",–
COc1ccc(Nc2ccc(Cl)cc2)c(C(=O)O)c1,inactive,–
CC(C)c1ccc(/C=C/C2=NNC(=O)CC2)cc1,active: 18.4 µM,–
O=C(Nc1ccccc1Cl)NC1CCCCCCC1,inactive,–
CCCCn1c(CCNC(=O)c2ccco2)nc2ccccc21,"inconclusive: 23.1 µM [inhibitor, partial curve]",–
Cc1onc(-c2c(Cl)cccc2Cl)c1C(=O)NNC(=O)c1c(-c2c(Cl)cccc2Cl)noc1C,"inconclusive: 2.06 µM [inhibitor, full curve, poor fit]",–
Cc1cc(C)c(/C=C/c2onc(C)c2S(=O)(=O)N2CCC(C(=O)Nc3cccc(C)c3C)CC2)c(C)c1,active: 5.17 µM,–
Cc1ccsc1/C=N/Nc1ncnc2nc[nH]c12,inactive,–
CCOC(=O)c1c(C)oc2nc(C)nc(N(C)Cc3ccccc3)c12,active: 18.4 µM,–
CCCC(=O)Oc1ccc2[nH]c(C(=O)c3cc4ccccc4[nH]3)cc2c1,"inconclusive: 20 µM [inhibitor, single point]",–
Cc1cc(C)cc(NS(=O)(=O)c2ccc3[nH]c(=O)ccc3c2)c1,–,inconclusive: -33.9% [inhibitor]
CN(C)CCCN(Cc1cc2cc3c(cc2[nH]c1=O)OCO3)C(=S)NCc1ccco1,inactive,–
CC(=O)c1ccc(NC(=O)CSc2nc(-c3ccccc3C)nc3c2c(=O)n(C)c(=O)n3C)cc1,–,inconclusive: -32% [inhibitor]
Cc1cccc(N(CC(=O)NC2CC2)S(=O)(=O)c2ccc(Cl)cc2)c1,inactive,–
